Out of some 45,000 compounds screened, about 200 (0.44%) were called active. Roughly 7% stayed inconclusive and do not appear here. Calls come from the whole dose curve; as a rule, active = well fitted activation curve with a large enough effect; inconclusive = small, poorly fitted or top-dose-only effect; inactive = no such curve, though single readings can be large or run the other way. The list shows a part of the results.
Assay: qHTS of TDP-43 Inhibitors: NCGC Sytravon Library Screen; note: 0% is about no effect; nearly all actives have a fitted effect of over 55% in size
Details: yeast TDP-43 toxicity rescue, BacTiter-Glo growth, 24 h; series mostly up to 46.1 µM; growth rescue (activation): at the top concentration
Method in brief: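 TDP-43-expressing yeast, pregrown in raffinose, seeded at OD600 0.02 in galactose medium with compound for 24 hr at 30 deg C. Growth read by BacTiter-Glo luminescence, so rescue of toxicity appears as activation.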

| SMILES | growth rescue (activation) |
| --- | --- |
| Cc1cccc(S(=O)(=O)Nc2nc3ccccc3nc2NCc2ccco2)c1 | inactive: 21.7% |
| COCCNC(=O)C(c1ccc(O)cc1)N(Cc1ccccc1)C(=O)CCC(=O)Nc1nccs1 (stereo not given) | inactive: 3.32% |
| COc1ccc(C)cc1S(=O)(=O)NNc1nc(C)cc(C)n1 | inactive: 10.5% |
| Cc1ccc(NC(=O)c2ccco2)c(NC(=O)c2ccccc2)c1 | inactive: -3.57% |
| Fc1ccc(NC(=S)Nc2cccnc2)cc1 | inactive: -10.6% |
| Nn1c(SCC(=O)Nc2ccc3c(c2)OCCO3)nnc1C(F)(F)F | inactive: 4.96% |
| COc1ccc(Cl)cc1N(CC(=O)NCCSc1ccccn1)S(=O)(=O)c1ccccc1 | inactive: 14.7% |
| O=C(Cc1ccccc1)NNC(=O)C1CC=CCC1 (stereo not given) | inactive: -6.74% |
| COc1ccc(-c2cc3cc(OC)c(OC)cc3c(C)n2)cc1 | inactive: 12.6% |
| O=C(CN1C(=O)CS/C1=C\c1nc(-c2ccc(Cl)cc2)cs1)Nc1cccnc1Cl | inactive: -22.7% |
| CS(=O)(=O)N1CCC(Oc2ccccc2C(=O)N2CCNC(=O)C2)CC1 | inactive: -1.5% |
| Cc1ccc(C)c(N2CCN(c3ccc(N4C(=O)COCC4=O)cc3[N+](=O)[O-])CC2)c1 | inactive: 7.57% |
| Cc1cccc(/C=C/c2nc3ccccc3c(=O)[nH]2)c1 | inactive: 17.6% |
| O=C(NCc1ccc(Cl)cc1)N1CCN(S(=O)(=O)c2ccccc2)CC1 | inactive: 7.99% |
| COC(=O)CSc1[nH]c2ccc(Br)cc2c1[N+](=O)[O-] | inactive: -0.129% |
| COc1ccc(NC(=O)CN2C(=O)NC(C)(c3ccccc3)C2=O)c(OC)c1 (stereo not given) | inactive: -0.726% |
| O=C(CCNS(=O)(=O)c1ccccc1C(F)(F)F)NCCCN1CCOCC1 | inactive: 0.984% |
| COc1ccc(NS(=O)(=O)c2ccc(OC)c(NC(=O)CCC3CCCC3)c2)cc1 | inactive: -19.1% |
| Cc1cccc(N(C(=O)c2snc(C(N)=O)c2N)C(C(=O)NCC2CCCO2)c2cccs2)c1 (stereo not given) | inactive: -8.69% |
| COc1ccc(/C=C/C(=O)OCC(=O)c2c(C)[nH]c3ccccc23)cc1OC | inactive: 2.52% |
| O=C(Cc1ccc(Cl)cc1)OCC(=O)N1CCCCCC1 | inactive: 9.24% |
| O=C(CN1C(=O)NC2(CCCc3ccccc32)C1=O)NCC(F)(F)F (stereo not given) | inactive: 1.61% |
| ClCCN1C2=NCCCN2c2ccccc21 | inactive: -6.56% |
| CCCN(CCC)C(=O)c1cc2c(=O)n3cccc(C)c3nc2s1 | inactive: 3.33% |
| O=C(CCS(=O)(=O)c1ccc(Cl)cc1)NCCc1c[nH]c2ccccc12 | inactive: 0.826% |
| Cc1cc(C(=O)OCC(=O)Nc2ccccc2Br)c(C)o1 | inactive: 8.8% |
| CC(C)NC(=O)C(=O)NCCN1CCN(C(=O)c2ccc(C(C)(C)C)cc2)CC1 | inactive: -3.54% |

| SMILES | growth rescue (activation) |
| --- | --- |
| O=C(c1cccc(F)c1)N1CCN(C(=O)c2cc3nc(-c4ccco4)cc(C(F)(F)F)n3n2)CC1 | inactive: 19.8% |
| CCS(=O)(=O)c1ncc(Cl)c(C(=O)N2CCN(c3ccc(OC)cc3)CC2)n1 | inactive: 15.8% |
| O=C(NC1CCCCC1)c1ccc2c(c1)OCCO2 | inactive: 0.0614% |
| Cc1ccc(CNC(=O)CCc2cn(C)c3ccccc23)cc1 | inactive: 20.5% |
| CNc1c(NS(=O)(=O)c2ccc3c(c2)CCCC3)c(=O)oc2ccccc12 | inactive: 7.37% |
| CN(C)c1cccc(CNC(=O)c2csc([C@@H]3O[C@H](CO)[C@H](O)[C@H](O)[C@H]3O)n2)c1 | inactive: 2.95% |
| Cc1ccc(C)c(NC(=S)/C(=C(\[O-])c2ccc(OC(F)F)cc2)[n+]2ccccc2)c1 | inactive: -3.65% |
| Cc1nc(N2CCOCC2)nc(OCCN2CCOCC2)c1[N+](=O)[O-] | inactive: 7.27% |
| CC1(C(=O)NS(=O)(=O)c2cccc(OC(F)F)c2)CCN1C(=O)C1CCCCC1 (stereo not given) | inactive: 6.62% |
| CC(=O)c1cc2c(cc1N(C(=O)Cn1nnc3ccccc31)C(C(=O)NCCC(C)C)c1cccnc1)OCO2 (stereo not given) | inactive: -3.52% |
| CC1(C(=O)NS(=O)(=O)c2cccs2)CCN1C(=O)C1CC1 (stereo not given) | inactive: 5.36% |
| COc1ccc(C(=O)NCc2nnc(SCC(=O)c3ccc(F)cc3)n2C)cc1OC | inactive: 2.22% |
| Cc1ccc(NC(=O)CSc2ncccn2)c([N+](=O)[O-])c1 | inactive: -1.78% |
| Cc1csc(SCC(=O)Nc2ccc(F)cc2Cl)n1 | inactive: 16.4% |
| O=C(OCC(=O)N1CCN(c2ccccc2)CC1)c1ccco1 | inactive: 13.7% |
| Cc1ccccc1NC(=O)CC(=O)Nc1ccccc1C | inactive: -6.75% |
| Cc1ccc(NC(=O)c2oc3ccccc3c2C)c([N+](=O)[O-])c1 | inactive: -15.9% |
| O=C(CC1C(=O)NCCN1C(=O)Nc1ccc(Cl)cc1)Nc1ccc(F)cc1 (stereo not given) | inactive: -33.9% |
| O=C(C1=NOC(CNc2ncc(C(F)(F)F)cc2Cl)C1)N1CCOCC1 (stereo not given) | inactive: 14% |
| Cc1nc(NC(=O)COC(=O)c2cc3c(s2)CCC(C)C3)c(Cl)cc1Cl (stereo not given) | inactive: 5.28% |
| CCOc1ccc(S(=O)(=O)N2CCC(C(=O)N3CCOCC3)CC2)cc1Cl | inactive: 1.81% |
| Cc1cccn2c(=O)c3cc(C(=O)NCCc4ccccc4)c(=N)n(Cc4ccco4)c3nc12 | inactive: 4.96% |
| COc1ccc(C2=NOC3(CC(=O)N(c4ccc(F)cc4)C3=O)C2)cc1 (stereo not given) | inactive: 11% |
| CN(C)/C=C/C(=O)c1cnc(-c2ccccc2)s1 | inactive: 14.7% |
| CS(=O)(=O)N1CCN(c2ccccc2NC(=O)c2cc(Br)ccc2Cl)CC1 | inactive: 24.2% |
| Cc1cccn2c(=O)c(/C=C(\C#N)C(=O)NCc3ccco3)c(N3CCOCC3)nc12 | inactive: 2.6% |
| COc1ccc2c(c1)c1nc3ccccc3nc1n2Cc1ccc(OC(C)C)c(OC)c1 | inactive: 16.7% |

| SMILES | growth rescue (activation) |
| --- | --- |
| CCCCn1c(N)c(N(CC)C(=O)CCNC(=O)c2ccc(Cl)cc2)c(=O)[nH]c1=O | inactive: 10.3% |
| CCC(C(=O)Nc1cc(C(=O)O)ccc1C)c1ccccc1 (stereo not given) | inactive: -10.2% |
| O=C(Nc1cc(S(=O)(=O)N2CCOCC2)ccc1N1CCCC1)c1ccc(Cl)cc1 | inactive: 6.06% |
| Cc1ccc2cc(C3CC(c4ccco4)=NN3S(C)(=O)=O)c(Cl)nc2c1 (stereo not given) | inactive: 16% |
| CC(C)C(=O)Nc1ccc(Br)cc1Cl | inactive: 11.4% |
| CCOc1ccc(N2C(=O)/C(=C/c3ccco3)N(C)C2=S)cc1 | inactive: 16.8% |
| O=C(/C=C/c1ccc(Cl)cc1)NCc1cccs1 | inactive: 11.9% |
| CC1CCN(C(=O)CNC(=O)c2cccc(OC(F)F)c2)CC1 | inactive: -2.48% |
| O=C(CCCN1C(=O)c2ccccc2C1=O)Nc1c2c(nc3c1CCC3)CCC2 | inactive: 9.15% |
| C=CCn1c(SCC(=O)Nc2ccc(C)cc2C)nnc1-c1cccnc1 | inactive: 6.44% |
| CCc1ccc(C2C(C#N)=C(N)Oc3cc(N)ccc32)cc1 (stereo not given) | inactive: 6.26% |
| CN(C)N1C(N)=C(C#N)C(c2ccccc2)C2=C1CC(C)(C)CC2=O (stereo not given) | inactive: 0.358% |
| O=S(=O)(c1ccc(F)cc1)N1CCN(C(=S)NC2CCCC2)CC1 | inactive: -2.18% |
| COc1cccc(NC(=O)C2CCC(CNS(=O)(=O)c3cccc4cccnc34)CC2)c1 (stereo not given) | inactive: 13.3% |
| CC(=O)Nc1ccc(S(=O)(=O)N(C)CC(=O)OCC(=O)c2cc(C)n(-c3ccc4c(c3)OCO4)c2C)cc1 | inactive: -7.02% |
| COc1ccccc1C(=O)Nc1c(C(=O)NC(C)(C)C)oc2ccccc12 | inactive: 6.82% |
| O=C(/C=C/c1cccc([N+](=O)[O-])c1)N1CCN(c2ccccc2F)CC1 | inactive: 37.8% |
| Cc1cccc(C(=O)NCC(=O)OCC(=O)NC2CCCCC2)c1 | inactive: 7.15% |
| Cc1ccc(NC(=O)CN(C)C2CCCCC2)cc1Br | inactive: -0.394% |
| CCn1nnc(NC(=O)c2ccc(Br)o2)n1 | inactive: 3.92% |
| O=C(c1ccccc1[N+](=O)[O-])N1CC2C3C=CC(C3)C2C1 (stereo not given) | inactive: 14.4% |
| Cc1ccc(C(=O)COc2ccc3ccc(=O)oc3c2)cc1 | inactive: 26.8% |
| Cc1ccc(NC(=O)Cc2nc(CCl)cs2)cc1 | inactive: -5.45% |
| CN(c1ccccc1)S(=O)(=O)c1cccc(C(=O)Nc2ccc(N3CCOCC3)cc2)c1 | inactive: -32% |
| C=CCc1cccc2cc(C(=O)NNC(=O)CC#N)c(=O)oc12 | inactive: 5.55% |
| COc1ccccc1S(=O)(=O)N1CCNC(=O)C1 | inactive: 16.7% |
| CCOc1ccc2[nH]c(=O)c(CN(CC3COCCO3)C(=O)c3ccco3)cc2c1 (stereo not given) | inactive: 8.7% |

| SMILES | growth rescue (activation) |
| --- | --- |
| NC(=O)C1CCN(CC(=O)Nc2ccc(S(=O)(=O)N3CCOCC3)cc2)CC1 | inactive: 0.55% |
| Cc1cc(=O)n(C2CCS(=O)(=O)C2)[nH]1 (stereo not given) | inactive: 5.9% |
| Cc1cc(C(=O)N2CCc3ccccc32)c2cc(F)ccc2n1 | inactive: -18.9% |
| COc1cc(C(=O)Nc2ccncc2)c([N+](=O)[O-])cc1OC | inactive: 14.3% |
| O=C1CSC(=NC2CCCCC2)N1 | inactive: 21.5% |
| Cc1cccc2c(N=Nc3ccc(S(=O)(=O)Nc4ccc(Cl)cc4)cc3[N+](=O)[O-])c(O)[nH]c12 | inactive: -3.87% |
| SC(COCc1ccccc1)CN1CCN(Cc2ccc3c(c2)OCO3)CC1 (stereo not given) | inactive: -7.12% |
| CCCC(C(=O)NC(C)(C)C)N(C(=O)c1snc(C(N)=O)c1N)c1ccc2c(c1)OCCO2 (stereo not given) | inactive: -0.923% |
| CCC1=C/C(=C/c2sc3ccccc3[n+]2CC)CC(C)(C)C1 | inactive: 2.83% |
| O=C(O)c1cc(Cl)c(Cl)cc1C(=O)Nc1cccc2cccnc12 | inactive: 11.7% |
| CS(=O)(=O)N1N=C(c2ccco2)CC1c1ccccc1Cl (stereo not given) | inactive: 7.07% |
| COc1ccc(CSc2nnc(-c3ccncc3)n2N)cc1 | inactive: 9.35% |
| O=C(C1=C(O)C(=O)N(CC2CCCO2)C1c1ccc(Cl)cc1Cl)c1ccco1 (stereo not given) | inactive: -13.8% |
| Cc1[nH]n(-c2ccccc2)c(=O)c1CCO | inactive: -7.37% |
| CC(=O)c1c(C)[nH]c(C(=O)N(CCc2ccccc2)Cc2ccccc2)c1C | inactive: 4.71% |
| O=C(CSc1nccc(=O)[nH]1)NC1CCCC1 | inactive: 6.84% |
| Cc1ccc(N=c2c([N+](=O)[O-])nn(-c3ccc4c(c3)OCCO4)n2O)cc1F | inactive: 12% |
| COc1ccc(S(=O)(=O)NCC(=O)N(CC(=O)NCC2CCCO2)Cc2ccc(F)cc2)cc1 (stereo not given) | inactive: -20% |
| COc1ccc(C(=O)C2CCCN(C(=O)c3n[nH]c4c3CCCC4)C2)cc1OC (stereo not given) | inactive: 9.14% |
| COc1cc(/C=C2\C(=N)N3N=C(C(C)C)SC3=NC2=O)ccc1OCCOc1ccc(NC(C)=O)cc1 | inactive: -23.4% |
| COc1ccc(CNC(=O)C2Cc3ccccc3CN2C(=O)c2ccco2)cc1 (stereo not given) | inactive: 11.5% |
| COc1ccc2c(c1)C(=O)C(=O)N2 | inactive: 9.71% |
| CC(CCc1ccccc1)NC(=O)COC(=O)C1CCC(C(C)(C)C)CC1 (stereo not given) | inactive: 9.01% |
| COc1ccccc1N1CCN(C(=O)C2CCCN(S(=O)(=O)c3ccc4c(c3)CCCN4C(C)=O)C2)CC1 (stereo not given) | inactive: -24% |
